Experimental data from PubChem BioAssay AID2060483 (Molecular Pharmacology Branch, DTP, NCI, 2025).
Some entries of the source have several records that differ or are many. This list holds those alone. There may be further records. Values given together are repeated measurements (runs, samples, wells, individuals or studies). Counts like (3×) count equal records among those shown.

Test system: K24384-001-R-PDC complex spheroids, viability
Experiment: Anticancer human tumor K24384-001-R-PDC patient-derived pancreatic adenocarcinoma cell line growth inhibition [GQUAD]
Details: for viability, T/C: stronger effect = lower value
Text: DNA G-quadruplex Stabilizer Agents in Combinations in Complex Spheroids
A high-throughput screen of multi-cell type tumor spheroids was designed to identify active combinations of DNA G-quadruplex stabilizer agents and targeted small molecules. Complex spheroids include a stromal component modeled by human endothelial cells (HUVEC) and fibroblasts modeled by human mesenchymal stem cells (MSCs). The concentration ranges selected for each drug and investigational agent were based upon clinically achievable concentrations if the clinical Cmax of the agent was known.
Compounds. The drugs and investigational agents: pidnarulex (CX-5461; NSC782164), APTO-253 (NSC789042), BRACO-19 (NSC847499), peposertib (NSC802822), ceralasertib (NSC780249), elimusertib (NSC800525), camonsertib (NSC841442), AZD-1390 (NSC803789), olaparib (NSC753686), talazoparib (NSC767125), ART-558 (NSC835418), sotorasib (NSC818433), MRTX-1133 (NSC836407), SN-38 (NSC673596), topotecan (NSC609699), etoposide (NSC141540), doxorubicin (NSC123127), gemcitabine (NSC613327), 5-fluorouracil (NSC19893), paclitaxel (NSC125973), vemurafenib (NSC761431), panobinostat (NSC761190), R-306465 (JNJ-16241199; NSC773264), adavosertib (NSC754352), TP-3654 (NSC805149), carboplatin (NSC241240), KSQ-4279 (NSC840948), and staurosporine (NSC755774) were obtained from the National Cancer Institute (NCI) Developmental Therapeutics Program Chemical Repository (34). The FDA-approved anticancer drug set is available from the NCI Developmental Therapeutics Program. […] The stock solutions were prepared in dimethyl sulfoxide (DMSO, Sigma-Aldrich, St. Louis, MO, cat. D2650) at 800-fold the tested concentration and stored at -70 degrees C prior to their use. All drugs and investigational agents were tested over a range starting from a high concentration at or near the clinical Cmax and decreasing in half-log increments. If the clinical Cmax for an agent had not been determined, the highest concentration tested was 10 microM.
2.3 Cell Culture. All cells were maintained in an incubator at 37 degrees C and 5% CO2 with 95% humidity. The PDC lines were cultured according to standard operating procedures established by the NCI PDMR. All PDCs were thawed and cultured in Matrigel-coated flasks prepared with a working solution of 1X Ham's F-12 nutrient mix, without supplementation (Invitrogen, cat. 11765054), 100 U/mL penicillin-streptomycin (Invitrogen, cat. 15140122), and 2.5% Matrigel (Corning Inc., cat. 354248) for the first three passages. The 857933-349-R-J2-PDC line was cultured in 6C/Colon 1B media, which includes advanced DMEM/F-12 (Thermo Fisher Scientific, cat. 12634028), 10 mM HEPES (Thermo Fisher Scientific, cat. 15630080), 1X GlutaMAX supplement (Thermo Fisher Scientific, cat. 35050061), 0.1 mg/mL primocin (InvivoGen, cat. ant-pm-2), 10% defined fetal bovine serum, heat inactivated (HyClone Laboratories Inc., cat. SH30070.03HI), 50% L-WRN conditioned media (ATCC, cat. CRL-3276), 1.25 mM N-Acetyl-L-cysteine (Sigma-Aldrich, cat. A9165), 10 mM nicotinamide (Sigma-Aldrich, cat. N0636), 1X B-27 supplement (Thermo Fisher Scientific, cat. 17504044), 1X N-2 supplement (Thermo Fisher Scientific, cat. 17502048), 10 microM Y-27632 dihydrochloride (Tocris Bioscience, cat. 1254), and 50 ng/mL human EGF recombinant protein (Thermo Fisher Scientific, cat. PHG0311). The 485176-168-R4-J1-PDC line was cultured in Panc media, which includes all 6C/Colon 1B media components plus 100 ng/mL human FGF-10 (Thermo Fisher Scientific, cat. 100-26), 500 nM SB-431542 (Selleckchem, cat. S1067), and gastrin (Tocris, cat. 3006).
[…]
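Note: spheroids exposed to compounds for seven days.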

## CN(C)c1ccc(Nc2c3ccc(NC(=O)CCN4CCCC4)cc3nc3cc(NC(=O)CCN4CCCC4)ccc23)cc1
Compound alone 1 µM
  viability, T/C: 90.3 (2×), 92.5, 83.5, 95.4, 86.1, 89.1, 80.2, 75.8, 91.1, 84.9, 101%
Compound alone 3.16 µM
  viability, T/C: 105, 93.5, 82.7, 96.6, 92, 81.8, 74.2, 102, 78.3, 89.3, 89.9, 86.2%
Compound alone 10 µM
  viability, T/C: 109, 94.5, 76, 84, 84.2, 75.9, 68.9, 77.5, 71.4, 87.5, 71.3, 99.2%

## O=C(NO)c1cnc(N2CCN(S(=O)(=O)c3ccc4ccccc4c3)CC2)nc1
Compound alone 1 µM
  viability, T/C: 0.98%, 22.9%, 27.9%

## Cc1cnc(CNC(=O)c2c(=O)c3ccc(N4CCCN(C)CC4)nc3n3c2sc2ccccc23)cn1
Compound alone 10 µM
  viability, T/C: 30.2, 16.6, 21, 31.9, 39.8, 0.3, 23.7, 34.2, 37.1, 0.16, 12, 33.2%
Compound alone, run of 02/20/2024
  IC50: 847 nM, 384 nM, 307 nM, 1.58 µM, 422 nM, 243 nM, 301 nM, 593 nM, 334 nM, 318 nM, 579 nM

## Cc1[nH]c2ccc(F)cc2c1-c1nc2c3cccnc3c3ncccc3c2[nH]1
Compound alone 1 µM
  viability, T/C: 86.8, 84.6, 90.2, 86, 85.7, 95.7, 86.1, 93.9, 93.5, 83.8, 68, 80.1%
Compound alone 10 µM
  viability, T/C: 52.1, 64.2, 58.3, 55.2, 61.6, 69.5, 52.9, 73.7, 74.7, 83.7, 82, 77.2%
